Results taken from patent publication US20250000946A1 (WUXI BIOLOGICS IRELAND, published 2025).

T1: Human IL-2Rα/β/γ complex (high affinity IL-2 receptor) (human, UniProt P01589 22-272; P14784 27-551; P31785 23-369)
T1 construct: whole, on cells
T1 sequence (looked up) 1: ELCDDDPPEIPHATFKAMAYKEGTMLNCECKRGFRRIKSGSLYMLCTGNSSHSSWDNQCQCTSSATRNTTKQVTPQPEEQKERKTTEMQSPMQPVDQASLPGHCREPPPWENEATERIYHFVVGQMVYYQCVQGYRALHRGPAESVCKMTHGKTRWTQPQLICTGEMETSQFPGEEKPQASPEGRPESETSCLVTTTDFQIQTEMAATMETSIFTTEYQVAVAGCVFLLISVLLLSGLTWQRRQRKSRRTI
T1 sequence (looked up) 2: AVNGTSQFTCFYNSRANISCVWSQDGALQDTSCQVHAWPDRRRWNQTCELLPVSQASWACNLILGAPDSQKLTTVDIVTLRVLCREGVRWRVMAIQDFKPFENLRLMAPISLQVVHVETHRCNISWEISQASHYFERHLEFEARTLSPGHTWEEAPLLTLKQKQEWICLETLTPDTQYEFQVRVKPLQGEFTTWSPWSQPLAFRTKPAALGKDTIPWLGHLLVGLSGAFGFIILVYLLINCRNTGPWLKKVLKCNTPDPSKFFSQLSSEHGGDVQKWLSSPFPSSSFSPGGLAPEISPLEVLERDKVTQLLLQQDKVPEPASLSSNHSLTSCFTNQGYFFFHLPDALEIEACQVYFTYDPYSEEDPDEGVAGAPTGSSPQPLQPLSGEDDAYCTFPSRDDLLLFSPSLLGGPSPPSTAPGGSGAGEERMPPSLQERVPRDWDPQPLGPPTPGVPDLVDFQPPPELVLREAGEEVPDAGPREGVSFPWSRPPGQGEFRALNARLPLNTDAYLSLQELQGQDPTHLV
T1 sequence (looked up) 3: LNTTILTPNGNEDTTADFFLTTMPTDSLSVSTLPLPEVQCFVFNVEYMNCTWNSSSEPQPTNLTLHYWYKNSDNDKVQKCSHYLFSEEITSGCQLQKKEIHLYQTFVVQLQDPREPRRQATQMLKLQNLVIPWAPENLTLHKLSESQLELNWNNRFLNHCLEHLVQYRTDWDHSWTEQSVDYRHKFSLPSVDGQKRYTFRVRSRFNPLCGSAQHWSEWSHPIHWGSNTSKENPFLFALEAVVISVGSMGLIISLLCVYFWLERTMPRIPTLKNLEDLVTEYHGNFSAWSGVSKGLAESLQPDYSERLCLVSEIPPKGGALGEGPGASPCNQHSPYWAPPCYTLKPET

T2: Human IL-2Rβ/γ (intermediate affinity IL-2 receptor) (human, UniProt P14784 27-551; P31785 23-369)
T2 construct: whole, on cells; also called IL-2Rβ/γc; IL-2Rβ (CD122) and γ (CD132)
T2 sequence (looked up) 1: T1 sequence (looked up) 2
T2 sequence (looked up) 2: T1 sequence (looked up) 3

B1: W3XX115-T2U0.E44-4.uIgG4V1 (Fc fusion)
chain: [no letters for about 150 residues]KYGPPCPPCPAPEFLGGPSVFLFPPKPKDTLMISRTPEVTCVVVDVSQEDPEVQFNWYVDGVEVHNAKTKPREEQFNSTYRVVSVLTVLHQDWLNGKEYKCKVSNKGLPSSIEKTISKAKGQPREPQVYTLPPCQEEMTKNQVSLWCLVKGFYPSDIAVEWESNGQPENNYKTTPPVLDSDGSFFLYSRLTVDKSRWQEGNVFSCSVMHEALHNHYTQKSLSLSLG
heavy: EIQLQQSGPELVKPGASVKVSCKASGYSFTDYNMYWVKQSHGESLEWIGYIDPYNGGTRYNQKFKGKATLTVDKSSSTAFMHLNSLTSEDSAVYYCARNGHWDGAWFAYWGQGTLVTVSAASTKGPSVFPLAPCSRSTSESTAALGCLVKDYFPEPVTVSWNSGALTSGVHTFPAVLQSSGLYSLSSVVTVPSSSLGTKTYTCNVDHKPSNTKVDKRVESKYGPPCPPCPAPEFLGGPSVFLFPPKPKDTLMISRTPEVTCVVVDVSQEDPEVQFNWYVDGVEVHNAKTKPREEQFNSTYRVVSVLTVLHQDWLNGKEYKCKVSNKGLPSSIEKTISKAKGQPREPQVCTLPPSQEEMTKNQVSLSCAVKGFYPSDIAVEWESNGQPENNYKTTPPVLDSDGSFFLVSRLTVDKSRWQEGNVFSCSVMHEALHNHYTQKSLSLSLG
light: DIQMNQSPSSLSASLGDTITITCHASQNINVWLSWYQQKPGNIPKLLIYKASNLHTGVPSRFSGSRSGTGFTLTISSLQPEDIATYYCHQGQSYPFTFGSGTKLEIKRTVAAPSVFIFPPSDEQLKSGTASVVCLLNNFYPREAKVQWKVDNALQSGNSQESVTEQDSKDSTYSLSSTLTLSKADYEKHKVYACEVTHQGLSSPVTKSFNRGEC
notes: IL-2 with C-terminal 2 aa (LT) deleted; E44 format, IgG4
B2: W3XX115-T2U0.E44-3.uIgG4V1 (Fc fusion)
chain: [no letters for about 150 residues]SKYGPPCPPCPAPEFLGGPSVFLFPPKPKDTLMISRTPEVTCVVVDVSQEDPEVQFNWYVDGVEVHNAKTKPREEQFNSTYRVVSVLTVLHQDWLNGKEYKCKVSNKGLPSSIEKTISKAKGQPREPQVYTLPPCQEEMTKNQVSLWCLVKGFYPSDIAVEWESNGQPENNYKTTPPVLDSDGSFFLYSRLTVDKSRWQEGNVFSCSVMHEALHNHYTQKSLSLSLG
heavy: B1 heavy
light: B1 light
notes: IL-2 with C-terminal 1 aa (T) deleted; E44 format, IgG4
B3: W3XX115-U0T2.F114-1.uIgG1V320 (Fc fusion)
heavy 1: EIQLQQSGPELVKPGASVKVSCKASGYSFTDYNMYWVKQSHGESLEWIGYIDPYNGGTRYNQKFKGKATLTVDKSSSTAFMHLNSLTSEDSAVYYCARNGHWDGAWFAYWGQGTLVTVSAASTKGPSVFPLAPSSKSTSGGTAALGCLVKDYFPEPVTVSWNSGALTSGVHTFPAVLQSSGLYSLSSVVTVPSSSLGTQTYICNVNHKPSNTKVDKRV[no letters for human IgG1 Fc with changes]GGGGSGGGGSGGGGS[no letters for about 150 residues]
heavy 2: EIQLQQSGPELVKPGASVKVSCKASGYSFTDYNMYWVKQSHGESLEWIGYIDPYNGGTRYNQKFKGKATLTVDKSSSTAFMHLNSLTSEDSAVYYCARNGHWDGAWFAYWGQGTLVTVSAASTKGPSVFPLAPSSKSTSGGTAALGCLVKDYFPEPVTVSWNSGALTSGVHTFPAVLQSSGLYSLSSVVTVPSSSLGTQTYICNVNHKPSNTKVDKRVEPKSCDKTHTCPPCPAPEAAGGPSVFLFPPKPKDTLMISRTPEVTCVVVDVSHEDPEVKFNWYVDGVEVHNAKTKPREEQYNSTYRVVSVLTVLHQDWLNGKEYKCKVSNKALPAPIEKTISKAKGQPREPQVCTLPPSREEMTKNQVSLSCAVKGFYPSDIAVEWESNGQPENNYKTTPPVLDSDGSFFLVSKLTVDKSRWQQGNVFSCSVMHEALHNHYTQKSLSLSPG
light: B1 light
notes: WT IL-2 on the C-terminus of one heavy chain via (G4S)3 linker; IgG1 Fc with LALA; two Fab arms; also called C-terminal fusion protein (F114)
B4: W3XX115-T2U0.E44-2.uIgG1V320 (Fc fusion)
chain: [no letters for about 150 residues]GGGGSGGGGSGGGGS[no letters for human IgG1 Fc with changes]
heavy: B3 heavy 2
light: B1 light
notes: WT IL-2 N-terminal of Fc with (G4S)3 linker; IgG1 Fc with LALA; one Fab arm (E44 format)
B5: W3XX115-T2U0.E44-1.uIgG1V320 (Fc fusion)
chain: [no letters for about 350 residues with a human IgG1 Fc]
heavy: B3 heavy 2
light: B1 light

What was measured:
[1] = molecular target: T1, Human IL-2Rα/β/γ complex (high affinity …); experiment: FACS, NK92 cells; EC50 fold vs T2U0.E44-1
Description: (§1) Human cutaneous T cell lymphoma HH cells, malignant non-Hodgkin's lymphoma NK92 cells and cutaneous T cell lymphoma MJ20 cells were used for binding assay. They both constitutively express IL-2Rβ (CD122) and […] (CD132), and NK92 and MJ20 also expresses IL-2Rα (CD25). HH, NK92 and MJ20 cells were cultured following ATCC guidance, then transferred to a 96-plate for binding analysis. Cells were incubated with IL-2/Fc fusion proteins at the indicated concentrations for 30 min at 4° C. to avoid internalization. Binding was detected by 2nd antibody of PE-anti-human Fc at 4° C. for another 30 min. The median fluorescence intensity (MFI) on HH and NK92 cells was measured using FACS.

[2] = molecular target: T2, Human IL-2Rβ/γ (intermediate affinity …); experiment: FACS, HH cells
Description: as §1

[3] = molecular target: T2, Human IL-2Rβ/γ (intermediate affinity …); experiment: FACS, HH cells; EC50 fold vs T2U0.E44-1
Description: as §1

[4] = molecular target: T2, Human IL-2Rβ/γ (intermediate affinity …); experiment: cell-based or functional assay
[5] = molecular target: T1, Human IL-2Rα/β/γ complex (high affinity …); experiment: cell-based or functional assay
[6] = molecular target: T1, Human IL-2Rα/β/γ complex (high affinity …); experiment: FACS, NK92 cells
Description: as §1

[7] = molecular target: T1, Human IL-2Rα/β/γ complex (high affinity …); experiment: FACS on NK92 cells (IL-2Rα/β/γ), 30 min at 4 °C, PE anti-human Fc, MFI
Description: as §1

| Binder | Affinity reduction [1] [fold] | EC50 [2] [nM] | Affinity reduction [3] [fold] | Potency in human CD8+ T EC50 [4] [nM] | Potency reduction (CD8+ T) [4] [fold] | Potency in human Treg EC50 [5] [nM] | Potency reduction (Treg) [5] [fold] | EC50 [6] [nM] | binding result [7] |
| --- | --- | --- | --- | --- | --- | --- | --- | --- | --- |
| B1 | 1.37 | 55.2 | 1.78 | 18.4 | 1.93 | 0.77 | 29.8 | 7.56 | – |
| B2 | 1.22 | 188 | 6.05 | 38.1 | 4 | 0.34 | 13.2 | 6.69 | – |
| B3 | – | 48 | – | – | – | – | – | – | binds |
| B4 | – | 33 | – | – | – | – | – | 4.1 | – |
| B5 | – | 43 | – | – | – | – | – | 4.9 | – |
